Data published in the RNAGym collection of RNA variant scans (doi:10.1073/pnas.2313332121).
Variants at the floor of the assay are shown more often than the library holds them.

B1: TPR 5TU (parent)
chain: GGAUCUUCUCGAUCUAACAAAAAAGACAAAUCUGCCACAAAGCUUGAGAGCAUCUUCGGAUGCAGAGGCGGCAGCCUUCGGUGGCGCGAUAGCGCCAACGUUCUCAACUAUGACACGCAAAACGCGUGCUCCGUUGAAUGGAGUUUAUCAUG

Variants of: B1
Assay: polymerase ribozyme fitness, log enrichment relative to wild type (log ratio); higher = more active; in vitro selection for triplet polymerase activity
Outline: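 Genotype fitness is the logarithm of its enrichment divided by wild-type enrichment, using inverse-variance-weighted averages of replicates. That logarithm is base 2. Enrichment was measured by Illumina sequencing of input and output libraries from one triplicate in vitro selection round, with frozen incubation at −7 °C, on PCR-built, transcribed mutant libraries of each subunit of a heterodimeric triplet polymerase ribozyme, retaining genotypes with ≥10 input reads and ≥1 read per output.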

First: C14A A19C A39C C54U C75A C76U C87U U90G
Second: C14A A19C C93U C125A
The “polymerase ribozyme fitness (log ratio)” value of the first is lower: at most -4.2 for the first, -3.52 for the second.

Going from C14A A19C G58U A89U to C14A A19G A26U C79A G83U A119C, the “polymerase ribozyme fitness (log ratio)” value falls from -2.28 to at most -4.2.

C14A A19U A37C U53G A73G U77G C96U and C14A A20U A60G A66U C93G cannot be ordered by “polymerase ribozyme fitness (log ratio)” value: at most -4.2 for the first, at most -4.2 for the second.

C14A A20U C85A U109G and C14A A20U G25A A40G C54U cannot be ordered by “polymerase ribozyme fitness (log ratio)” value: at most -4.2 for the first, at most -4.2 for the second.

Compared with C14A A21C A22C, C14A A21U G59U G133C is lower in “polymerase ribozyme fitness (log ratio)” value: -0.829 for the first, -3.06 for the second.

C14A A22G A29G U44G G62A C85G A89U and C14A A22U A24G G42U C76A A120G U127C U145C cannot be ordered by “polymerase ribozyme fitness (log ratio)” value: at most -4.2 for the first, at most -4.2 for the second.

C14A A23C U56A C75G U77A C93U C95G U102C and C14A A23G A26U C43U C54U C57A C96G G143A cannot be ordered by “polymerase ribozyme fitness (log ratio)” value: at most -4.2 for the first, at most -4.2 for the second.

C14A A24C A26U C96U and C14A A24G C57G C76U G92U A137G G143U U146A cannot be ordered by “polymerase ribozyme fitness (log ratio)” value: at most -4.2 for the first, at most -4.2 for the second.

C14A A24U G42C C76U C79G C87U A97G U148A and C14A A26U A60U C75G A122U A138C cannot be ordered by “polymerase ribozyme fitness (log ratio)” value: at most -4.2 for the first, at most -4.2 for the second.

C14A A28U C38U A91G and C14A A29C U77C G86U G117U U139A G140U U148A cannot be ordered by “polymerase ribozyme fitness (log ratio)” value: at most -4.2 for the first, at most -4.2 for the second.

C14A A29G A37C G68C C85A A106U U134C and C14A A29U U44A U53G G70U G84U C96G U148A cannot be ordered by “polymerase ribozyme fitness (log ratio)” value: at most -4.2 for the first, at most -4.2 for the second.

First: C14A A37C C87U C103G U109G C129A A137U
Second: C14A A37G C93U
The “polymerase ribozyme fitness (log ratio)” value of the first is lower: at most -4.2 for the first, -4.13 for the second.

C14A A39U A49U U82C and C14A A39U G59C G84A G92C A138U U139A cannot be ordered by “polymerase ribozyme fitness (log ratio)” value: at most -4.2 for the first, at most -4.2 for the second.

C14A A40G C43G G86U U135C G143C U148G and C14A A41U A49C cannot be ordered by “polymerase ribozyme fitness (log ratio)” value: at most -4.2 for the first, at most -4.2 for the second.

C14A A47C C123U U134A A138U U144G and C14A A52C C54A C85U cannot be ordered by “polymerase ribozyme fitness (log ratio)” value: at most -4.2 for the first, at most -4.2 for the second.

Compared with C14A A52G C85U A113C, C14A A52G U53A U56A G70U C75U C96U C132G U135G is lower in “polymerase ribozyme fitness (log ratio)” value: -4.15 for the first, at most -4.2 for the second.

Compared with C14A A52U A89U G94C A97C, C14A A60G C85G C118G C132U is higher in “polymerase ribozyme fitness (log ratio)” value: at most -4.2 for the first, -3.89 for the second.

C14A A73G C96U A138U G141A and C14A A73U C85U C99G C125A cannot be ordered by “polymerase ribozyme fitness (log ratio)” value: at most -4.2 for the first, at most -4.2 for the second.

C14A C18U A22U A26U U82C C95U U145G U148C C149U and C14A C27G A91C A115G A121C cannot be ordered by “polymerase ribozyme fitness (log ratio)” value: at most -4.2 for the first, at most -4.2 for the second.

C14A C27G C35A C87U C116A U135G and C14A C32G U45A U55A G59C G92A A98U A110U C114U cannot be ordered by “polymerase ribozyme fitness (log ratio)” value: at most -4.2 for the first, at most -4.2 for the second.

C14A C32U C108G A120U U139G and C14A C35G G59C A64C A73G G141U cannot be ordered by “polymerase ribozyme fitness (log ratio)” value: at most -4.2 for the first, at most -4.2 for the second.

C14A C35G G84A C114U C123U G128C and C14A C35U U61A A64G C69G G86A C99G cannot be ordered by “polymerase ribozyme fitness (log ratio)” value: at most -4.2 for the first, at most -4.2 for the second.

C14A C38A C93G and C14A C38A G68U C87U A91C C132U A142C U144C A147G cannot be ordered by “polymerase ribozyme fitness (log ratio)” value: at most -4.2 for the first, at most -4.2 for the second.

Compared with C14A C38U C69G C85A A113G, C14A C38U G84U is higher in “polymerase ribozyme fitness (log ratio)” value: at most -4.2 for the first, -3 for the second.

C14A C38U U56A C93G A110C G136U G143A and C14A C43U C79G cannot be ordered by “polymerase ribozyme fitness (log ratio)” value: at most -4.2 for the first, at most -4.2 for the second.

Going from C14A C43U G58C C75G to C14A C54A, the “polymerase ribozyme fitness (log ratio)” value rises from at most -4.2 to -3.55.

C14A C54G A66C G94A C103G and C14A C57A G80A C93U A107G G126U cannot be ordered by “polymerase ribozyme fitness (log ratio)” value: at most -4.2 for the first, at most -4.2 for the second.

C14A C57G G71A C76A C99U C105A U127C A142G and C14A C57U A66C G84A G88C A97C U135G G136A cannot be ordered by “polymerase ribozyme fitness (log ratio)” value: at most -4.2 for the first, at most -4.2 for the second.

C14A C69G C75A G92U G140U and C14A C72G G80C C99U cannot be ordered by “polymerase ribozyme fitness (log ratio)” value: at most -4.2 for the first, at most -4.2 for the second.

C14A C85A and C14A C85A C129U are within 0.2 log units of each other in “polymerase ribozyme fitness (log ratio)” value: -2.69 for the first, -2.79 for the second.

Going from C14A C116G to C14A G25U A52G A91G C108U, the “polymerase ribozyme fitness (log ratio)” value falls from -0.826 to at most -4.2.

C14A G25U U55A G83A C96A and C14A G46C C75G C87A A89U U90G C96U U102G G140A cannot be ordered by “polymerase ribozyme fitness (log ratio)” value: at most -4.2 for the first, at most -4.2 for the second.

C14A G48A A91U G100A U101C U134A and C14A G48A G94A G100C C114A cannot be ordered by “polymerase ribozyme fitness (log ratio)” value: at most -4.2 for the first, at most -4.2 for the second.

C14A G50A C85G C96A and C14A G50A U77G A98U cannot be ordered by “polymerase ribozyme fitness (log ratio)” value: at most -4.2 for the first, at most -4.2 for the second.

Going from C14A G59A G74A G80C G100A A110U to C14A G62A C85A G141A, the “polymerase ribozyme fitness (log ratio)” value rises from at most -4.2 to -3.57.

Going from C14A G62U G94A to C14A G65A U102G G117A A120U, the “polymerase ribozyme fitness (log ratio)” value falls from -2.9 to at most -4.2.

C14A G68A A73C G84A G88A G117C and C14A G68A G84A G136C cannot be ordered by “polymerase ribozyme fitness (log ratio)” value: at most -4.2 for the first, at most -4.2 for the second.

C14A G68U C76A C99U G100A and C14A G80C G86U C118U cannot be ordered by “polymerase ribozyme fitness (log ratio)” value: at most -4.2 for the first, at most -4.2 for the second.

First: C14A G83A C93G A107G
Second: C14A G84A
The “polymerase ribozyme fitness (log ratio)” value of the first is lower: at most -4.2 for the first, -1.24 for the second.

Compared with C14A G86C, C14A U15A G50U A66G U101G C114U C118G G133A A137G is lower in “polymerase ribozyme fitness (log ratio)” value: -3.85 for the first, at most -4.2 for the second.

C14A U31A A73G C96U A142C and C14A U44A G50C U53A C54U G81U G84C U145C cannot be ordered by “polymerase ribozyme fitness (log ratio)” value: at most -4.2 for the first, at most -4.2 for the second.

First: C14A U44A G81A C85A U102G
Second: C14A U44G
The “polymerase ribozyme fitness (log ratio)” value of the first is lower: at most -4.2 for the first, -4.1 for the second.
